Measured values taken from paper PMC4336329 (PLoS ONE, 2015).
About 14,000 (4.5%) of roughly 310,000 compounds showed an effect of 50% or more. Effects have a minus sign here. The list shows a part of the results.

target: human ether-à-go-go-related gene (hERG) potassium channel (human, UniProt Q12809); assay: primary screen, population patch clamp on CHO cells stably expressing hERG
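Note: peak tail current of the secondary pulse compared with the same well before compound.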

human ether-à-go-go-related gene (hERG) potassium channel, sequence (Q12809 whole entry, looked up): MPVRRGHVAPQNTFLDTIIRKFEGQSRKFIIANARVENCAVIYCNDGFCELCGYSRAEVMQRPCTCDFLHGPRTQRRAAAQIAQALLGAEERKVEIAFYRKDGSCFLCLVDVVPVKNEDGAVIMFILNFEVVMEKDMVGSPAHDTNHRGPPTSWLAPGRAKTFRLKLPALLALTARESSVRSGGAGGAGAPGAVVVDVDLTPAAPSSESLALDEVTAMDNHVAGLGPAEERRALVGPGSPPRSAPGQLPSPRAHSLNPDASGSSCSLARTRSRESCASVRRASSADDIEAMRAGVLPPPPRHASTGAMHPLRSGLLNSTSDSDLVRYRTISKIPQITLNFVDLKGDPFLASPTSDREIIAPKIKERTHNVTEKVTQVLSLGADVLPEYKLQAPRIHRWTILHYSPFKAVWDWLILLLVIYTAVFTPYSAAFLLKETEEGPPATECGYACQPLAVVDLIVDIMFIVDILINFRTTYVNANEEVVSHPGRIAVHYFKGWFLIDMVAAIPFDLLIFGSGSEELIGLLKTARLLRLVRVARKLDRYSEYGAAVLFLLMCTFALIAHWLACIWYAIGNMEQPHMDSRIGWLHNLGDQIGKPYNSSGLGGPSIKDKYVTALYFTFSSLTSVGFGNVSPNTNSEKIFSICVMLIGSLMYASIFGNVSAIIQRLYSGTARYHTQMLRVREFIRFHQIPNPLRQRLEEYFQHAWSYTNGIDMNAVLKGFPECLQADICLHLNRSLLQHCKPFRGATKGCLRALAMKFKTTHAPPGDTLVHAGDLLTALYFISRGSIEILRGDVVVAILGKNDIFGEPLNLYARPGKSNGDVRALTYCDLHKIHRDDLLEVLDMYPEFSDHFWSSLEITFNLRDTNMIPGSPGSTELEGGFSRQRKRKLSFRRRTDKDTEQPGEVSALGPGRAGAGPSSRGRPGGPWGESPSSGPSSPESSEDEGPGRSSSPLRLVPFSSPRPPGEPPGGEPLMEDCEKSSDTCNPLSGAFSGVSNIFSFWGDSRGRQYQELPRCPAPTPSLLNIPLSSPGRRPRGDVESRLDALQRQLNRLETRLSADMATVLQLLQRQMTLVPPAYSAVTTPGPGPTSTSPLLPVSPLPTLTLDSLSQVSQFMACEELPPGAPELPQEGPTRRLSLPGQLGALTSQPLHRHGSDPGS

Compound | hERG current change (%, negative = inhibition) at 10uM [%]
CC(C)CC(=O)/C(=C/c1ccc(N(C)C)cc1)n1cncn1 | 6.07
O=c1oc2cc(O)ccc2cc1-c1ccccc1 | 12.6
O=C(CSc1n[nH]c(-c2cccnc2)n1)OC1CCCCC1 | 10
COc1ccccc1CN(Cc1nc2ccccc2c(=O)[nH]1)C(=O)Nc1ccccc1C | 6.67
Cc1ccc(-n2cccc2C(=O)NS(=O)(=O)c2ccc(C)cc2)cc1 | -1.11
COc1ccc(-c2c(C(F)(F)F)oc3c(CN4CCN(C)CC4)c(O)ccc3c2=O)cc1 | 9.96
O=C(NC1CCS(=O)(=O)C1)c1cccc(S(=O)(=O)N2CCCC2)c1 (centres unmarked) | 16.9
CN(Cc1cccc2cnccc12)C(=O)c1cc(COc2ccc(F)cc2Cl)on1 | -19.1
O=C(O)c1ccc(CNC(=O)c2ccc(C(F)(F)F)cc2)cc1 | 9.96
CCC(=O)Nc1ccc(C(=O)CN2C(=O)NC3(CCOc4ccccc43)C2=O)cc1 (centres unmarked) | -8.45
COc1ccc(Cl)cc1S(=O)(=O)N1CCCC1=O | -0.656
Cc1ccc(O)c(C2=Nc3ccccc3N=C(c3cccs3)C2)c1 | 12
Cc1ccccc1NC(=O)c1ccc2c(O)c(S(=O)(=O)c3ccccc3)c(=O)[nH]c2c1 | 8.7
CCOC(=O)N1CCN(CC(=O)N2c3ccccc3CCc3ccccc32)CC1.O=C(O)C(=O)O | -10.1
CCCN(CCC)c1nc(N)c(C#N)c(CC#N)c1C#N | -4.14
Cc1ccc(S(=O)(=O)N(C)C)cc1NC(=O)CCNC(=O)c1ccco1 | 16.6
Cc1cc(NS(=O)(=O)c2ccc(NC(=S)NC(=O)/C=C/c3ccccc3)cc2)no1 | 7.71
CCc1c(C)nc2cc(-c3cc(OC)cc(OC)c3)nn2c1N1CCN(CCN2CCOCC2)CC1 | -33.5
CC(C(=O)NCC1CCCCC1)N(C)Cc1ccc(Cl)cc1 (centres unmarked) | -12.1
C/C(NCc1cccnc1)=C(\C#N)C(=O)NCc1ccccc1 | -7.27
Cc1cc(=O)n(C)c(=O)n1CCCCCN1CCCC1.O=C(O)C(=O)O | 5.16
Cc1cccc(CS(=O)(=O)Cc2ccc(C(=O)NCC3CCCO3)o2)c1 (centres unmarked) | -16.6
CCOC(=O)C(=O)Nc1cc(C(=O)OC)cc(C(=O)OC)c1 | 13.5

Compound | hERG current change (%, negative = inhibition) at 10uM [%]
COc1ccc(NC(=O)Cc2ccc(Cl)c(Cl)c2)cn1 | 34.7
O=C(COC(=O)c1ccc([N+](=O)[O-])cc1)Nc1cccnc1Cl | -1.85
Cn1ccsc1=NC(=O)c1cc(S(=O)(=O)N2CCOCC2)ccc1Cl | -4.3
CC(=O)Nc1sc2c(c1C(c1cccc(F)c1)N1CCN(CCO)CC1)CCCC2 (centres unmarked) | -41.4
O=C(O)c1ccc(S(=O)(=O)Nc2cccc(CP(=O)(c3ccccc3)c3ccccc3)c2)cc1 | 17.6
Nc1ccccc1Nc1cccc(C(F)(F)F)c1 | 8.31
NC(=O)C1CCN(C(=O)Nc2csc3ccccc23)CC1 | 4.59
COc1ccc(OC)c(C(=O)COC(=O)c2cc(C)oc2C)c1 | 11.8
CN(CCN(C)C(C)(C)C)C(=O)C(c1ccccc1)c1ccccc1 | -8.05
CC1CCN(c2ccccc2NC(=S)NC(=O)c2cccs2)CC1 | -50.2
CN1CCN(C(=O)c2ccc(F)c(F)c2)CC1 | 6.82
CSc1nc(N)nc(SCC(=O)c2ccc(C)cc2)c1C#N | 7.8
CC(C)c1ccccc1NC1=NCCCS1 | 4.91
Cc1cc(NC(=O)c2ccccc2Cl)n(C(C)(C)C)n1 | 19.3
CC(CCN1CCOCC1)c1ccccc1 (centres unmarked) | 21.9
CC(C)(C)c1ccc(OCc2cnc(Cl)s2)cc1 | 21.6
CCOC(=O)COc1cccc(C2NC(=O)c3ccccc3O2)c1 (centres unmarked) | -0.167
N#C/C(=C\c1ccccc1Br)C(=O)NC1CC1 | -15.5
Cn1c(=O)c2c(nc(Br)n2CCc2ccccc2)n(C)c1=O | -3.12
Oc1cccc(/C=N/N2CCN(c3ccccn3)CC2)c1 | -12.2
N#C/C(=C\c1cn[nH]c1-c1ccc(Cl)cc1)C(=O)NCc1ccccc1 | -4.37
COc1cccc(CN2CCNC(=O)C2CC(=O)NCCN2CCCCC2=O)c1 (centres unmarked) | 17
CC(C)(C)n1nnnc1C(c1ccc(F)cc1)N1CCN(Cc2ccc3c(c2)OCO3)CC1 (centres unmarked) | -37.8

Compound | hERG current change (%, negative = inhibition) at 10uM [%]
CN(C)C=O.Cc1cc(C)n2nc(C(=O)OCC(=O)c3c[nH]c4ccccc34)nc2n1 | 29
C/C(=N\NC(=O)C1CC1)c1cccs1 | 9.16
Cc1cc(=O)[nH]c2c(C)cc(S(=O)(=O)NCc3ccccc3)cc12 | 11.7
COc1ccc(C(=O)N2CCN=C2SC)cc1OC | -5.58
Cc1ccc(C(=O)Nc2nc(-c3cc(Cl)sc3Cl)cs2)cc1 | 4.2
CC(C)(C)c1nn(-c2ccccc2)c2[nH]c(=O)c(CNCc3ccc4c(c3)OCO4)cc12 | -17.9
COC(=O)c1nn(-c2ccc(C)cc2)ccc1=O | 17.2
Cc1ccc(C2CC(c3cccs3)=NN2S(=O)(=O)c2ccc(C)cc2)cc1 (centres unmarked) | 10.7
C=CCOCCN(C)C1=NS(=O)(=O)c2cc([N+](=O)[O-])ccc21 | -19.8
Cc1ccc(C(=O)N/C(=C/c2ccco2)C(=O)N2CCOCC2)cc1 | -12.7
Cc1ccc(S(=O)(=O)N2CCC(C(=O)OCC(=O)N3CC(=O)Nc4ccccc43)CC2)cc1 | -27.2
Cc1ccc2nc(SCC(=O)Nc3nonc3C)[nH]c2c1 | 12.6
C(=N\Nc1nc(-c2ccccc2)cs1)/c1cccnc1 | -59.5
Cc1ccsc1/C=N/NC(=O)CNC(=O)c1ccccc1 | 10.2
CCOc1ccc(C(=O)N/N=C/c2ccccc2[N+](=O)[O-])cc1 | 6.35
CC(C)OCCCNC(=O)C1CC(=O)N(C2CCCCCCC2)C1 (centres unmarked) | 11.5
COc1ccccc1N1C(=O)C2C(c3ccc(F)cc3)NN(C(=O)c3ccc(C)cc3)C2C1=O (centres unmarked) | 0.222
Cl.Clc1c(OCCCn2ccnc2)ccc2ccccc12 | -31.9
COc1cc(N)c(Cl)cc1C(=O)OCC(=O)N1CCc2ccccc21 | -1.13
Cc1cc(NC(=O)CSc2nc(-c3ccco3)cc(C(F)(F)F)n2)no1 | 23.3
Fc1ccc(-c2nc3cnccn3c2NC2CCCC2)cc1 | 6.31
CC1CCN(c2ccc(-c3ccc(NC(=O)C(F)(F)F)cc3)nn2)CC1 | 6.63
CCN(CC)S(=O)(=O)c1cc(NC(=O)C(C)N2CCN(c3ccccn3)CC2)ccc1C (centres unmarked) | -39.3

Compound | hERG current change (%, negative = inhibition) at 10uM [%]
O=[N+]([O-])c1ccc(P(=O)(Cc2ccccc2)c2ccccc2O)cc1 (centres unmarked) | 26.2
NC(=O)C1CCCN(S(=O)(=O)c2ccc3ccccc3c2)C1 (centres unmarked) | -7.12
CCOC(=O)C1CCN(C(=O)Cn2cnc3sc(C)c(S(=O)(=O)N4CCCCC4)c3c2=O)CC1 | -35.5
COC(=O)CSc1nc(C)cc(C(F)(F)F)c1C#N | -4.62
O=C(NCCc1nnc2ccc(SCC(=O)N3CCOCC3)nn12)c1ccccc1 | 7.63
CC(=O)OCN(C#N)c1nc(N(C)C)nc(N(C)C)n1 | 5.8
N#CCCN(C(=O)COc1ccc(F)cc1Br)c1ccccc1F | -8.54
CCCCc1nc(C(N)=O)c2[nH]c(=O)n(-c3ccccc3F)c2n1 | -2.06
COc1ccc(Cl)cc1NC(=O)CN(C)C(=O)c1cc(=O)c2ccccc2o1 | -28
Cc1ccc(S(=O)(=O)N2c3ccccc3NC(=O)CC2C)cc1 (centres unmarked) | 10.5
Cl.c1ccc(Cc2ccc(OCCN3CCOCC3)cc2)cc1 | -14.3
NC(N)=N/N=C/c1ccc(OS(=O)(=O)c2ccccc2)cc1 | -55.6
OCCC1CN(Cc2ccccc2-c2ccco2)CCN1Cc1ccccc1 (centres unmarked) | -35.7
Cc1ccc(C(=O)NCc2ccco2)cc1Br | -11.5
COc1cc(NC(=O)Cn2c(C)cc3ccccc3c2=O)cc(OC)c1OC | 17.1
CC(=O)NS(=O)(=O)c1ccc(N2C(=O)c3ccccc3C2=O)cc1 | 1.42
CSc1nnc(-c2ccncc2)n1/N=C/c1cn(-c2ccccc2)nc1-c1ccc(Cl)cc1 | -39.6
Cc1ccc(CO/N=C/C2=C(Cl)c3ccccc3CC2)cc1 | 16.8
NC(=O)c1ccc(-n2nnnc2SCC(=O)Nc2ccccc2-c2ccccc2)cc1 | -58.1
O=C(c1ccc2c(c1)OCO2)N1CCC2(CC1)Oc1ccc(F)cc1C(=O)C21CC(c2ccccc2)=NO1 (centres unmarked) | -0.0659
